{"source": "PubChem BioAssay AID602332", "about": "(National Center for Advancing Translational Sciences (NCATS), 2012)", "note": "Values joined by “and” are separate entries in the source; they are usually repeats but may differ in a detail not shown here. Equal entries are not always repeated. Out of some 420,000 compounds screened, about 75 (0.02%) were called active. Inconclusive results, whose numbers are uncertain, are shown with a selection of clear calls. Calls come from the whole dose curve; as a rule, active = well fitted activation curve with a large enough effect; inconclusive = small, poorly fitted or top-dose-only effect; inactive = no such curve, though single readings can be large or run the other way. Potencies beside an inconclusive call are fits to weak or partial responses and may not hold up. Potency is the fitted concentration of half-maximal effect; tags give direction and shape of the fitted curve."}
{"test": "qHTS for Inducers of the Endoplasmic Reticulum Stress Response (ERSR) in Human Glioma: qHTS; note: nearly all actives have a fitted effect of over 35% in size; for activation: % of control where 0% means no effect", "conditions": "U87-MG GRP78 promoter luciferase reporter, 16 h; activation: hits give high values", "outline": "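Stably transfected U87-MG human glioma cells carrying a GRP78-based luminescent sensor were seeded at 1000 cells/well, pin-dosed with compounds and incubated 16 h. Luciferase reagent was then added, and end-point luminescence was read after 10 min at room temperature.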"}
{"smiles": "Cc1cccc(C(=O)NC(=S)NNC(=O)c2ccc(Cl)cc2)c1", "Potency": "active: 35.5 µM"}
{"smiles": "COc1ccc2[nH]cc(/C=C(/C#N)S(=O)(=O)c3ccccc3)c2c1", "Potency": "inconclusive: 63.1 µM [activator, single point]"}
{"smiles": "CN(C)S(=O)(=O)c1ccc(N2CCCC2)c(C(=O)Nc2nc3ccccc3s2)c1", "Potency": "inconclusive: 12.6 µM [activator, full curve, poor fit]"}
{"smiles": "Cc1ccc(-n2ccc(=O)c(C(=O)Nc3ccc(S(=O)(=O)Nc4onc(C)c4C)cc3)n2)cc1", "activation": "inactive: 2.85%"}
{"smiles": "COc1ccc(NC2CCCN(C(=O)c3ccc(C(C)=O)cc3)C2)cc1", "note": "(stereo not given)", "activation": "inactive: -0.138%"}
{"smiles": "Cc1ccc(Cn2c(C(C)Nc3nc(-c4ccc(C)cc4)cs3)nc3cc(Cl)c(Cl)cc32)cc1", "note": "(stereo not given)", "activation": "inactive: -0.929%"}
{"smiles": "O=C(N[C@@H]1c2ccccc2C2(CCN(C(=O)c3ccc4c(c3)OCCO4)CC2)[C@H]1O)c1cccnc1", "activation": "inactive: -4.43%"}
{"smiles": "O=C(Nc1ccccc1)c1ccc2nc(-c3ccco3)c(-c3ccco3)nc2c1", "activation": "inactive: -4.18% and inactive: 3.91%"}
{"smiles": "Cc1ccc([N+](=O)[O-])cc1NC(=O)Nc1ccc(S(N)(=O)=O)cc1", "Potency": "inconclusive: 28.2 µM [activator, single point]"}
{"smiles": "C[C@@H]1CN(C(=O)c2cc(COc3cccc(C(F)(F)F)c3)on2)C[C@H](C)O1", "Potency": "inconclusive: 12.6 µM [activator, single point]"}
{"smiles": "Cc1[nH]n(-c2nc(-c3ccc(Cl)cc3)cs2)c(=O)c1N=Nc1ccc(O)cc1", "activation": "inactive: 0.937%"}
{"smiles": "CCN(CC(=O)Nc1ccc(NC(C)=O)cc1)CC(=O)Nc1cccc2ccccc12", "Potency": "inconclusive: 22.4 µM [activator, single point]"}
{"smiles": "S=C(Nc1ccccc1)Nc1nc2ccccc2n1CCOc1ccccc1", "Potency": "inconclusive: 28.2 µM [activator, single point]"}
{"smiles": "COc1ccccc1Nc1nn2c(=O)c3ccc(C(=O)NCCc4ccccc4)cc3nc2s1", "Potency": "inconclusive: 2.24 µM [activator, full curve, poor fit]"}
{"smiles": "COc1ccc(Nc2nc(N)nc(CSC(=S)N3CCOCC3)n2)cc1", "activation": "inactive: 2.22%"}
{"smiles": "Cc1ccc(SC(C)C(=O)N2CCCC2)cc1", "note": "(stereo not given)", "Potency": "inconclusive: 11.2 µM [activator, partial curve, poor fit]"}
{"smiles": "COC(=O)c1ccc(C2N=C(c3cccs3)CC(c3ccccc3O)N2)cc1", "note": "(stereo not given)", "Potency": "inconclusive: 50.1 µM [activator, single point]"}
{"smiles": "O=C(Nc1ccc2c(c1)OCO2)NC1(C(F)(F)F)Oc2ccccc2O1", "Potency": "inconclusive: 11.2 µM [activator, single point]"}
{"smiles": "CCCCCCCCN1[C@@H](CC(=O)O)c2cc(C(F)(F)F)ccc2S1(=O)=O", "Potency": "inconclusive: 50.1 µM [activator, single point]"}
{"smiles": "CCCCNS(=O)(=O)c1ccc2nc(SCC(=O)c3ccc(C#N)cc3)[nH]c2c1", "Potency": "inconclusive: 50.1 µM [activator, single point]"}
{"smiles": "O=C(Nc1c2c(nn1-c1ccc(Cl)cc1)CS(=O)(=O)C2)c1ccc(Br)cc1", "activation": "inactive: -4.85%"}
{"smiles": "COC(=O)c1cn([C@@H]2C[C@@H](C(=O)N3CCCCCC3)N(Cc3cc4ccccc4s3)C2)nn1", "Potency": "inconclusive: 14.1 µM [activator, single point]"}
{"smiles": "O=C(CCc1nnc(C2CCCCC2)o1)N1CCN(Cc2ccccc2)CC1", "Potency": "inconclusive: 22.4 µM [activator, single point]"}
{"smiles": "CCCCN(C=O)c1c(CC)nc2c(OCCC3CCCCC3)cccn12", "Potency": "inconclusive: 50.1 µM [activator, single point]"}
{"smiles": "CCn1nnc(NC(=O)c2cccc(-c3cc4ccccc4oc3=O)c2)n1", "activation": "inactive: 8.24%"}
{"smiles": "Cc1ccc(Nc2nc(Cl)nc(N(C)C#N)n2)cc1", "Potency": "inconclusive: 28.2 µM [activator, single point]"}
{"smiles": "COc1ccc(/C=C2/SC(c3ccc(C)cc3)=NC2=O)cc1OC", "Potency": "inconclusive: 44.7 µM [activator, partial curve, poor fit]"}
{"smiles": "CCOc1ccc(OCCCC(=O)N(C)CC(=O)Nc2ccc(N3CCOCC3)cc2)cc1", "activation": "inactive: -1.74%"}
{"smiles": "CC(=O)COc1ccc2c3c(c(=O)oc2c1C)CCCCC3", "Potency": "inconclusive: 11.2 µM [activator, partial curve, poor fit]"}
{"smiles": "COCCCNC(=O)CCCn1c(=O)[nH]c2ccccc2c1=O", "Potency": "inconclusive: 3.98 µM [activator, single point]"}
{"smiles": "COC(=O)c1c(NC(=O)CCl)sc(C(=O)N2CCOCC2)c1C", "Potency": "inconclusive: 44.7 µM [activator, partial curve, poor fit]"}
{"smiles": "CC(C)c1ccc(/C=C2\\SC(=O)N(CC(=O)NC3C=CS(=O)(=O)C3)C2=O)cc1", "note": "(stereo not given)", "Potency": "inconclusive: 11.2 µM [activator, full curve, poor fit]"}
{"smiles": "C=CC[C@H](CC(=O)OC(C)(C)C)C(=O)OC[C@@H]1CCCN1C(=O)[C@@H](CC=C)CC(=O)N[C@H](CO)Cc1ccccc1", "Potency": "inconclusive: 50.1 µM [activator, single point]"}
{"smiles": "COC(=O)c1c(NC(=O)/C=C/C(=O)O)sc(C)c1-c1ccc(C(C)C)cc1", "Potency": "inconclusive: 28.2 µM [activator, single point]"}
{"smiles": "O=C(CSc1ccc2ccccc2c1)NCCc1ccc(O)c(O)c1", "Potency": "inconclusive: 14.1 µM [activator, single point]"}
{"smiles": "Cc1ccccc1N=Cc1cccc(O)c1O", "Potency": "inconclusive: 10 µM [activator, single point]"}
{"smiles": "CNCc1ccccc1OCC(=O)Nc1ccccc1", "Potency": "inconclusive: 12.6 µM [activator, single point]"}
{"smiles": "Cc1cccc(NC(=O)c2cn(-c3ccccc3)nc2-c2ccccc2)c1C", "activation": "inactive: -4.39%"}
{"smiles": "Nc1c(C(=O)c2ccccc2)sc2snc(SCC(=O)c3ccccc3)c12", "Potency": "inconclusive: 28.2 µM [activator, single point]"}
{"smiles": "c1ccc(C(NCc2cccnc2)(c2ccccc2)c2ccccc2)cc1", "Potency": "inconclusive: 50.1 µM [activator, single point] and inconclusive: 46.5 µM [activator, partial curve, poor fit]"}
{"smiles": "S=C(Nc1ccccc1)N1N=CCC1c1ccccc1", "note": "(stereo not given)", "Potency": "inconclusive: 7.94 µM [activator, partial curve]"}
{"smiles": "Cn1cnnc1Sc1ccc(/C=C/C(=O)c2ccc(O)cc2)cc1[N+](=O)[O-]", "Potency": "inconclusive: 20 µM [activator, single point]"}
{"smiles": "O=C(Nc1ccc(S(=O)(=O)N(Cc2ccccc2)c2ccccc2)cc1)c1ccc([N+](=O)[O-])cc1", "activation": "inactive: -1.82%"}
{"smiles": "CCCCOC(=O)c1sc2nc(C)cc(C)c2c1N", "Potency": "inconclusive: 11.2 µM [activator, full curve, poor fit]"}
{"smiles": "CN1CCC(=NNC(=O)C(=O)NC2CCCC2)CC1", "Potency": "inconclusive: 50.1 µM [activator, partial curve, poor fit]"}
{"smiles": "CCOc1cccc(C2C=C(c3ccc4c(c3)OCO4)NC(c3ccc(Cl)cc3)N2)c1O", "note": "(stereo not given)", "Potency": "inconclusive: 44.7 µM [activator, partial curve, poor fit]"}
{"smiles": "CCOc1cc(/C=N/Nc2nc(-c3cccs3)c(NC(C)=O)s2)ccc1O", "activation": "inactive: -8.42%"}
{"smiles": "O=C(NCc1ccco1)/C(=C/c1ccc(C(F)(F)F)cc1)c1nc2ccccc2[nH]1", "Potency": "inconclusive: 10 µM [activator, partial curve, poor fit]"}
{"smiles": "C=CC(=O)Nc1ccc(Nc2nc(NC3CCC(N(C)C)CC3)nc3c2ncn3C(C)C)cc1", "note": "(stereo not given)", "activation": "inactive: -6.39%"}
{"smiles": "CN(CC(=O)Nc1cccc(F)c1)C(=O)CCNC(=O)c1ccc(Br)cc1", "Potency": "inconclusive: 2.24 µM [activator, partial curve, poor fit]"}
{"smiles": "COc1c(-c2ccc(O)c(O)c2)oc2cc(O)cc(O)c2c1=O", "Potency": "inconclusive: 11.2 µM [activator, single point]"}
{"smiles": "O=C(Nc1ccccc1O)c1ccc(NC(=O)C2CC2)cc1", "Potency": "inconclusive: 7.94 µM [activator, full curve]"}
{"smiles": "O=C(Nc1cccnc1)c1ccc(Cl)c([N+](=O)[O-])c1", "Potency": "inconclusive: 50.1 µM [activator, single point]"}
{"smiles": "COc1ccc(C2=Nn3c(nnc3-c3ccc(OC)cc3)SC2)cc1", "activation": "inactive: -4.02%"}
{"smiles": "CC1CC(C)CN(C(=S)Nc2ccc(SC(F)F)cc2)C1", "note": "(stereo not given)", "activation": "inactive: -3.09%"}
{"smiles": "O=C(COc1ccc(C(=O)c2ccccc2)cc1)Nc1cccnc1", "Potency": "inconclusive: 10 µM [activator, single point]"}
{"smiles": "O=C(/C=C/c1ccccc1F)c1ccoc1", "Potency": "inconclusive: 14.1 µM [activator, single point]"}
{"smiles": "COC(=O)c1ccc(NC(=O)COc2ccc([N+](=O)[O-])cc2)cc1", "activation": "inactive: -5.59%"}
{"smiles": "Nc1nc(-c2ccc3c(c2)CCCC3)cs1", "Potency": "inconclusive: 15.8 µM [activator, partial curve, poor fit]"}
{"smiles": "CCOc1ccc(OCCC(=O)OCC(=O)Nc2ccc(Cl)cn2)cc1", "activation": "inactive: -5.93%"}
{"smiles": "CC(C)Nc1nc(NC(C)C)nc(Oc2ccc(=O)n(C)n2)n1", "Potency": "inconclusive: 50.1 µM [activator, single point]"}
{"smiles": "Nc1nc(N2CCN(C(=O)c3ccco3)CC2)nc2ccccc12", "activation": "inactive: 0.384%"}
{"smiles": "O=C(CSc1nc(-c2ccccc2)cs1)NCCCN1CCCC1=O", "activation": "inactive: -3.68%"}
{"smiles": "COc1ccccc1CN1CCC(n2nccc2NC(=O)c2ccccc2Cl)CC1", "activation": "inactive: -1.41%"}
{"smiles": "O=C(c1oc(=O)c2ccccc2c1-c1ccccc1)N1CCOCC1", "activation": "inactive: -4.37%"}
